This note sets out measurements from the supplement of paper PMC4604168 (melanoma cell lines).

This is one part of the list. Single values are uncertain, as repeats are few or missing.
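Note: cell number obtained by counting DAPI-stained nuclei in high-throughput microscope images with image analysis software, screen run in 1,536-well plates.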

In the experiment the test system is IPC-298. Briefly: cell count relative to DMSO control; melanoma cells; higher = more viable cells. The note with it: library dose: low library concentration; 72 h.
In turn, `Cc1cc(Nc2cc(N3CCN(C)CC3)nc(Sc3ccc(NC(=O)C4CC4)cc3)n2)n[nH]1` [Tozasertib] + CC(C)CCN1c2nc(Nc3cc(F)c(O)c(F)c3)ncc2N(C)C(=O)C1C [BID1870] (first compound 0.006 µM, partner dose 0.2 µM) came in with a cell count of 96.7%.
As to `N#CC[C@H](C1CCCC1)n1cc(-c2ncnc3[nH]ccc23)cn1` [ruxolitinib] + COc1ccc(-c2ccc3c(N4CCOCC4)nc(N4C[C@@H](C)O[C@@H](C)C4)nc3n2)cc1CO [KU0063794] (first compound 1 µM, partner dose 0.02 µM), the cell count worked out at 93.4%.
`Cc1cc(Nc2cc(N3CCN(C)CC3)nc(Sc3ccc(NC(=O)C4CC4)cc3)n2)n[nH]1` [Tozasertib] + Cc1cc([N+](=O)[O-])ccc1NS(=O)(=O)c1cc(Cl)ccc1Cl [FH535] (first compound 0.006 µM, partner dose 1 µM) had a cell count of 101%.
`CC[C@]1(O)C[C@H]2CN(CCc3c([nH]c4ccccc34)[C@@](C(=O)OC)(c3cc4c(cc3OC)N(C=O)[C@H]3[C@@](O)(C(=O)OC)[C@H](OC(C)=O)[C@]5(CC)C=CCN6CC[C@]43[C@@H]65)C2)C1` [vincristine] + c1cc(-c2cnn3cc(-c4ccc(OCCN5CCCCC5)cc4)cnc23)ccn1 [Dorsomorphin] (first compound 0.0001 µM, partner dose 0.4 µM) returned a cell count of 98.7%.
The figure for `N#CC[C@H](C1CCCC1)n1cc(-c2ncnc3[nH]ccc23)cn1` [ruxolitinib] + Oc1nc(-c2ccc(C(F)(F)F)cc2)nc2c1CSCC2 [XAV939] (first compound 1 µM, partner dose 2 µM) is 106%; for `Cc1cc(Nc2cc(N3CCN(C)CC3)nc(Sc3ccc(NC(=O)C4CC4)cc3)n2)n[nH]1` [Tozasertib] + Cn1cncc1[C@@](N)(c1ccc(Cl)cc1)c1ccc2c(c1)c(-c1cccc(Cl)c1)cc(=O)n2C [tipifarnib] (first compound 0.006 µM, partner dose 0.01 µM) it is 106%; for `CC[C@]1(O)C[C@H]2CN(CCc3c([nH]c4ccccc34)[C@@](C(=O)OC)(c3cc4c(cc3OC)N(C=O)[C@H]3[C@@](O)(C(=O)OC)[C@H](OC(C)=O)[C@]5(CC)C=CCN6CC[C@]43[C@@H]65)C2)C1` [vincristine] + NC(=O)Nc1cc(-c2cccc(F)c2)sc1C(=O)N[C@H]1CCCNC1 [AZD7762] (first compound 0.0001 µM, partner dose 0.02 µM) it is 99.1%.
The figure for `Cc1cc(Nc2cc(N3CCN(C)CC3)nc(Sc3ccc(NC(=O)C4CC4)cc3)n2)n[nH]1` [Tozasertib] + O=C1NC(=O)/C(=C/c2ccc(-c3ccc(F)cc3O)o2)S1 [AS252424] (first compound 0.006 µM, partner dose 1 µM) is 98.2%; for `CC[C@]1(O)C[C@H]2CN(CCc3c([nH]c4ccccc34)[C@@](C(=O)OC)(c3cc4c(cc3OC)N(C=O)[C@H]3[C@@](O)(C(=O)OC)[C@H](OC(C)=O)[C@]5(CC)C=CCN6CC[C@]43[C@@H]65)C2)C1` [vincristine] + Cc1cc(N2CCOCC2)cc2[nH]c(-c3c(NC[C@@H](O)c4cccc(Cl)c4)cc[nH]c3=O)nc12 [BMS536924] (first compound 0.0001 µM, partner dose 0.2 µM) it is 97.1%; for `CC[C@]1(O)C[C@H]2CN(CCc3c([nH]c4ccccc34)[C@@](C(=O)OC)(c3cc4c(cc3OC)N(C=O)[C@H]3[C@@](O)(C(=O)OC)[C@H](OC(C)=O)[C@]5(CC)C=CCN6CC[C@]43[C@@H]65)C2)C1` [vincristine] + NCC(=O)Nc1ccc(-n2nc(C(F)(F)F)cc2-c2ccc3c(ccc4ccccc43)c2)cc1 [OSU03012] (first compound 0.0001 µM, partner dose 1 µM) it is 78.7%.
The figure for `Cc1cc(Nc2cc(N3CCN(C)CC3)nc(Sc3ccc(NC(=O)C4CC4)cc3)n2)n[nH]1` [Tozasertib] + Oc1nc(-c2ccc(C(F)(F)F)cc2)nc2c1CSCC2 [XAV939] (first compound 0.006 µM, partner dose 2 µM) is 98.4%.
`CC[C@]1(O)C[C@H]2CN(CCc3c([nH]c4ccccc34)[C@@](C(=O)OC)(c3cc4c(cc3OC)N(C=O)[C@H]3[C@@](O)(C(=O)OC)[C@H](OC(C)=O)[C@]5(CC)C=CCN6CC[C@]43[C@@H]65)C2)C1` [vincristine] + COC(=O)c1sccc1S(=O)(=O)Nc1ccc(Nc2ccccc2)cc1OC [GSK0660] (first compound 0.0001 µM, partner dose 1 µM) registered a cell count of 94%.
Regarding `Cc1cc(Nc2cc(N3CCN(C)CC3)nc(Sc3ccc(NC(=O)C4CC4)cc3)n2)n[nH]1` [Tozasertib] + N#Cc1c(O)c2c(-c3ccc(-c4ccccc4O)cc3)csc2[nH]c1=O [A769662] (first compound 0.006 µM, partner dose 2 µM), the cell count was found to be 104%.
